In PubChem BioAssay AID2451 (National Center for Advancing Translational Sciences (NCATS), 2010):
The campaign covered roughly 290,000 compounds. About 2,100 (0.72%) were called active. This list was built around the results that the source calls inconclusive (neither active nor inactive); the mix of calls is not that of the screen. Calls come from the whole dose curve; as a rule, active = well fitted inhibition curve with a large enough effect; inconclusive = small, poorly fitted or top-dose-only effect, or effect the other way; inactive = flat fitted curve, though single readings scatter. Where the call is inconclusive, the potency comes from a doubtful curve fit.

Each compound was assayed against Fructose-bisphosphate aldolase (Giardia intestinalis (strain ATCC 50803 / WB clone C6)) (UniProt A8B2U2) (assay: qHTS Assay for Inhibitors of Fructose-1,6-bisphosphate Aldolase from Giardia Lamblia). Settings: purified Giardia FBPA; activity, negative = inhibition: at 59.6 µM (top of the series) unless noted.
Chain of UniProt A8B2U2 (A8B2U2 whole entry, looked up): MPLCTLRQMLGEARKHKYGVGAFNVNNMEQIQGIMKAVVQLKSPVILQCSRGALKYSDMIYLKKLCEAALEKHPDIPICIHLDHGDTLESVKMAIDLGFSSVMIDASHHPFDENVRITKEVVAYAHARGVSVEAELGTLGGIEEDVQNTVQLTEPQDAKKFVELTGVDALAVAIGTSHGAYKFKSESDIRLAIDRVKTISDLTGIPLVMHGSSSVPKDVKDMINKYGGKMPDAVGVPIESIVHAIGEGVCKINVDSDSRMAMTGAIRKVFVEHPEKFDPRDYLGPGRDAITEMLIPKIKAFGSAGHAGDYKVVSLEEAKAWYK
Excerpt: Assay Provider: Osnat Herzberg, University of Maryland
The objective of this project is to obtain compounds that inhibit Giardia lamblia growth. G. lamblia is a human pathogen which afflicts impoverished nations; it is the most common cause of outbreaks of diarrhea in the United States. During the course of our study of potential drug targets in Giardia, we have identified the Class II (Zn2+ functions in electrophilic catalysis) fructose-1,6-bisphosphate aldolase (FBPA) as an excellent candidate for drug targeting. FBPA is a key glycolytic pathway enzyme, essential for G. lamblia survival. The human FBPA belongs to the Class I aldolases, which have a different substrate binding site structure and a radically different catalytic mechanism (employing a lysine-Schiff base intermediate). Therefore, affinity-based or mechanism-based inhibitors of the Giardia FBPA are expected not to interfere with the catalytic function of the human FBPA.
A glyceraldehyde-3-phosphate dehydrogenase/triose phosphate isomerase/NAD/arsenate coupled assay was adapted to the 1536-well HTP format for use in the primary screen. This was done by coupling it to a diaphorase/resazurin/resorufin reaction that can be monitored by fluorescence (excitation, 544 nm; emission, 590 nm). Compounds identified in this screen will be further evaluated by coupling the glycerol-3-phosphate/triose phosphate isomerase/NADH assay to a phenazine methosulfate/tetranitroblue tetrazolium color reaction. False positives due to the dehydrogenases and diaphorase inhibition will be eliminated, and selectivity assay will triage inhibitors of mammalian triose phosphate isomerase and the Class I FBPA. G. lamblia FBPA inhibitors identified by the in vitro analyses will be examined for growth inhibition of Giardia trophozoites, and for cytotoxicity in human cells.
Step,Parameter,Value,Description
1,Enzyme reagent,2 uL,40 nM FBPA
2,Compound,23 nL,3.68 nM-57.5 uM final concentration
3,Time,10 min,RT Incubation
4,Substrate/detection Reagent,2 uL,Substrate + enzyme coupling system + AmpLite Red kit
5,Time,20 min,RT Incubation
6,Detector,525 nm/598 nm (Fluorescence),ViewLux Fluorescence Read (Read 1)
1,Medium-binding black solid-bottom Kalypsys plates. FRD or Kalypsys dispenser, 2 uL of FBPA enzyme. Bottle kept at 4C.
2,Compound Library (10 mM ,1:5 dilution). Pin-transferred for a [final] range of 3.68 nM-57.5 uM.
4,FRD or Kalypsys dispenser, 2 uL of reaction mixture. Bottle kept at 4C and covered in foil to protect from light.
6,ViewLux Protocol 1194; Excitation filter wheel A (525/20 Pol; BODIPY TMR FP), Emission filter wheel B (598/25 S; BODIPY TMR FP S).
Keywords: Fructose-bisphosphate aldolase, FBPA , Giardia lamblia , Giardia, HTS, Inhibitors
% is set by controls: 0 for no effect and ±100 for the full control effect; potency is the fitted concentration of half-maximal effect; tags give direction and shape of the fitted curve.
Note: nearly all actives have a fitted effect of over 55% in size.

Row | SMILES | activity, negative = inhibition | Potency
1 | NC1C(O)OC(CO)[C@@H](O)[C@@H]1O[C@H]1O[C@@H](C(=O)O)C(O)C(O)C1O (stereo not given in full) | inactive: 4.21% | 
2 | S=c1[nH]c2cc(Br)cnc2[nH]1 |  | inconclusive: 19.9 µM [inhibitor, partial curve]
3 | CS(=O)(=O)N1CCC[C@@]2(CCN(C(=O)Nc3ccccc3)C2)C1 | inactive: 1.98% | 
4 | Fc1ccc(-c2ncc3ccccn23)cc1 | inactive: -10.4% | 
5 | C[n+]1ccc(C(=O)N/N=C/c2ccco2)cc1 |  | inconclusive: 19.9 µM [inhibitor, single point]
6 | O=C(N/N=C/c1c(O)n(Cc2ccc(F)cc2)c(=O)[nH]c1=O)c1ccccc1O |  | inconclusive: 25.1 µM [inhibitor, single point]
7 | CCOC(=O)CNC(=O)CSc1cc(C)nc2ccc(OC)cc12 | inactive: 2.6% | 
8 | COc1ccc(CN2CCN(C(=O)c3cccc4ccccc34)CC2)cc1Br |  | inconclusive: 14.1 µM [inhibitor, partial curve]
9 | COc1ccc(NC2=NCC(=O)N2Cc2cccs2)cc1 | inactive: -3.61% | 
10 | Cc1cc(C)cc(NC(=O)CN2CCC(C(=O)c3ccccc3)CC2)c1 | inactive: 2.54% | 
11 | O=C(C1CCCN(Cc2ccccc2Cl)C1)N1CCCCC1 (stereo not given) |  | inconclusive: 17.8 µM [inhibitor, partial curve]
12 | CC(=O)c1c(C)nc(-c2ccc(Cl)cc2)nc1N |  | active: 5 µM
13 | CC1CCCC(C)N1C(=O)Cn1nnc(-c2ccccc2)n1 (stereo not given) | inactive: -9.21% | 
14 | C=CC(C1=CC(=O)C=CC1=O)c1ccccc1 (stereo not given) |  | inconclusive: 17.7 µM [inhibitor, partial curve]
15 | CCc1ccc(Nc2ncc3c(n2)CC(c2ccc(OC)cc2)CC3=O)cc1 (stereo not given) | inactive: 6.1% | 
16 | C/C(=N\NC(=O)C1(C)CC1(Br)Br)c1ccc(NC(=O)c2ccc(C)o2)cc1 (stereo not given) | inactive: -3.88% | 
17 | CN(C)CCCN(Cc1cc2cc3c(cc2[nH]c1=O)OCO3)C(=S)Nc1ccccc1 | inactive: -3.29% | 
18 | CCOC(=O)c1sc(=NC(=O)c2ccc(OC)c(OC)c2)n(C)c1C | inactive: 2.45% | 
19 | COC(=O)N/N=C/c1cccs1 | inactive: 0.463% | 
20 | Cc1ccc(C2=C/C(=C/c3cccnc3)C(=O)O2)c(C)c1 |  | inconclusive: 15.8 µM [inhibitor, partial curve]
21 | Cc1nnc(N/N=C/c2cccc(C(F)(F)F)c2)n1N |  | inconclusive: 17.8 µM [inhibitor, partial curve]
22 | COc1cccc(/C=N/Nc2ncc(C(F)(F)F)cc2Cl)c1O |  | inconclusive: 44.6 µM [inhibitor, single point]
23 | COCC(C)NCc1ccccc1C (stereo not given) |  | inconclusive: 17.7 µM [inhibitor, partial curve]
24 | CC(C(=O)N1CCCc2ccccc21)N1CCN(c2ccccn2)CC1 (stereo not given) |  | inconclusive: 12.6 µM [inhibitor, partial curve]
25 | Cn1cccc1/C=C1\SC(=Nc2ccc(O)cc2)NC1=O | inactive: 0.359% | 

Row | SMILES | activity, negative = inhibition | Potency
26 | COC(=O)c1sccc1NC(=O)NC1CCCCC1 | inactive: -6.74% | 
27 | C/C(=N\NC(=O)c1ccc(COc2ccccc2)cc1)c1ccncc1 | inactive: 4.26% | 
28 | COc1ccc(NS(=O)(=O)/C=C/c2ccc(OC)c(OC)c2)cc1 |  | inconclusive: 14.1 µM [activator, partial curve]
29 | CCCCS(=N)(=O)CC[C@H](N)C(=O)O (stereo not given in full) | inactive: -1.33% | 
30 | CCOC(=O)c1c(C)c(C)n(Cc2cccc(OC)c2OC)c1C | inactive: -3.84% | 
31 | Cc1ccccc1C(=O)NCC(=O)NNC(=S)NC(=O)c1ccccc1C |  | inconclusive: 7.92 µM [activator, partial curve]
32 | CCOc1ccc(C2CC(c3c(O)c4ccccc4oc3=O)=NN2c2ccccc2)cc1OC (stereo not given) |  | inconclusive: 31.5 µM [inhibitor, single point]
33 | COc1ccc(N2C(=O)[C@@H]3[C@H](C2=O)[C@H]2c4ccccc4C=CN2[C@@H]3C(C)=O)cc1 |  | inconclusive: 3.54 µM [inhibitor, full curve]
34 | CC(C)(C)NC(=O)NC(=O)C[n+]1ccc(Cc2ccc([N+](=O)[O-])cc2)cc1 |  | inconclusive: 5.01 µM [inhibitor, full curve]
35 | COc1cc(Cl)ccc1NC(=S)N(CCCN1CCOCC1)Cc1cn(C)c2ccccc12 |  | inconclusive: 28.1 µM [inhibitor, single point]
36 | CCOC(=O)CC1=C(C(=O)OCC)C(c2ccc(OC)c(OC)c2)C(C#N)=C(N)O1 (stereo not given) |  | inconclusive: 17.7 µM [inhibitor, partial curve]
37 | Cc1sc2nc(-c3ccccn3)[nH]c(=O)c2c1-c1ccccc1 |  | inconclusive: 14.1 µM [inhibitor, partial curve]
38 | CCOC(=O)C1CCCN(C(=O)CNC(=O)c2nn(-c3ccc(OC)c(Cl)c3)c(=O)c3ccccc23)C1 (stereo not given) | inactive: 15.4% | 
39 | COCCNC(=O)c1ccc(N2CCCCC2)c(NS(=O)(=O)c2ccc(C)cc2)c1 |  | inconclusive: 39.8 µM [inhibitor, single point]
40 | Oc1ccc2ccccc2c1C=Nc1cc(C(F)(F)F)ccc1N1CCCC1 |  | inconclusive: 15.8 µM [inhibitor, partial curve]
41 | Cn1c(/C=N/O)nc2ccccc21 |  | inconclusive: 15.8 µM [inhibitor, single point]
42 | O=C(Nc1nc(-c2ccccc2)cs1)Nc1ccc(F)cc1F | inactive: -1.41% | 
43 | Oc1c(C(c2ccco2)N2CCOCC2)sc2ncnn12 (stereo not given) |  | inconclusive: 14.1 µM [inhibitor, partial curve]
44 | O=[N+]([O-])c1cc(CN2CCN(c3ccccc3)CC2)c(O)c2ncccc12 |  | inconclusive: 28.1 µM [inhibitor, single point]
45 | COc1ccc2c(c1OC)C(Cc1ccccc1)N1CCc3cc4c(cc3C1C2)OCO4 (stereo not given) |  | inconclusive: 22.3 µM [inhibitor, partial curve]
46 | CC(C)Oc1ccc(C(=O)NC(=S)N2CCOCC2)cc1 |  | inconclusive: 17.7 µM [inhibitor, partial curve]
47 | O=C(Oc1ccc(=O)n(-c2ccccc2)n1)c1ccc(Cl)cc1 | inactive: -0.471% | 
48 | COc1ccc(CNc2ncc(-c3ccc(F)cc3)n2C)cc1OC |  | inconclusive: 12.6 µM [inhibitor, partial curve]
49 | O=C(NC1CCCC1)C(c1ccccn1)N(C(=O)c1csnn1)c1ccccc1Cl (stereo not given) | inactive: -0.855% | 
50 | CCOc1ccccc1C(=O)N/N=C/c1cccc2cccnc12 |  | inconclusive: 17.7 µM [inhibitor, single point]

Row | SMILES | activity, negative = inhibition | Potency
51 | CCCCn1c(NC(=O)C2CCCCC2)nc2ccccc21 |  | inconclusive: 19.9 µM [activator, single point]
52 | CC(C)C(=O)NC(=S)Nc1nnn(C)n1 |  | active: 3.15 µM
53 | CC1(c2ccccc2)NC(=S)N2C1NC(=S)N2c1ccccc1 (stereo not given) |  | inconclusive: 19.9 µM [inhibitor, single point]
54 | CCn1c(SCC(=O)Nc2ccccc2-c2ccccc2)nnc1-c1ccoc1C | inactive: -3.34% | 
55 | Cc1nc2ccccn2c1C(=O)NNC(=S)Nc1ccc(Cl)cc1 |  | inconclusive: 17.7 µM [activator, single point]
56 | COc1ccc(C(=O)NC(=S)N2C[C@H]3C[C@H](C2)c2cccc(=O)n2C3)cc1 |  | inconclusive: 14.1 µM [inhibitor, partial curve]
57 | CC(C)(C)C1=C(C#N)C(c2cccnc2)C(C#N)=C(N)O1 (stereo not given) |  | inconclusive: 12.6 µM [inhibitor, partial curve]
58 | O=C1CCNc2ccc(-c3ccccc3)cc21 |  | inconclusive: 5.61 µM [inhibitor, partial curve]
59 | C#CCOCCOCCOCCNc1nc(N2CCN(C(=O)C(Cc3ccc(O)cc3)n3cc(C(N)CC(C)C)nn3)CC2)nc(N2CCN(C(=O)C(Cc3cc4ccccc4[nH]3)n3cc(C(N)C(C)CC)nn3)CC2)n1 (stereo not given) | inactive: -0.153% | 
60 | CCOC(=O)c1c(C)oc2c1c(C(c1cccnc1)N1CCCCC1)c(O)c1ccccc12 (stereo not given) |  | inconclusive: 7.06 µM [inhibitor, partial curve]
61 | COc1ccc(/C=C/C(=O)NCC2COc3ccccc3O2)c(OC)c1 (stereo not given) |  | inconclusive: 15.8 µM [inhibitor, single point]
62 | COc1cc(CNCCc2ccc3c(c2)OCO3)cc(OC)c1OC |  | inconclusive: 14.1 µM [inhibitor, partial curve]
63 | CC(=O)c1sc(-c2ccccn2)nc1C | inactive: 0.682% | 
64 | Cc1c(OCC(=O)C(C)(C)C)ccc2c(-c3ccccc3)cc(=O)oc12 | inactive: -5.33% | 
65 | Cc1ccc(C2C(C#N)=C(N)Oc3nc(-c4ccccc4)[nH]c32)o1 (stereo not given) |  | inconclusive: 19.9 µM [inhibitor, partial curve]
66 | O=C(N/N=C/c1cccs1)c1ccc2c(c1)OCO2 | inactive: 5.3% | 
67 | Cc1nc(-c2ccccc2)cn(O)c1=O |  | inconclusive: 3.97 µM [inhibitor, partial curve]
68 | COc1cccc(C(=O)N2CCN(C3CCN(Cc4ccccc4)CC3)CC2)c1OC |  | inconclusive: 12.6 µM [inhibitor, partial curve]
69 | NN/C(=C\[N+](=O)[O-])Nc1ccccc1 | inactive: -24.9% | 
70 | COc1ccc(OC)c(CN2CCN(C(=O)c3ccc(F)cc3)CC2)c1 |  | inconclusive: 14.1 µM [inhibitor, partial curve]
71 | CCn1c(C)cc(C=C2C(=O)c3ccccc3C2=O)c1C | inactive: -26.3% | 
72 | O=C1/C(=C/c2ccco2)SC(=S)N1C1CCS(=O)(=O)C1 (stereo not given) |  | inconclusive: 35.4 µM [inhibitor, single point]
73 | OCC1CCCN(Cc2ccc(-c3ccccc3)cc2)C1 (stereo not given) |  | inconclusive: 17.7 µM [inhibitor, partial curve]
74 | Cn1ccnc1C(O)(c1ccccc1)c1nccn1C |  | inconclusive: 35.4 µM [inhibitor, single point]
75 | COc1cnc(-c2ccccn2)nc1Oc1cccc(Cl)c1 |  | inconclusive: 15.8 µM [inhibitor, single point]
